Results reported in PubChem BioAssay AID651820 (National Center for Advancing Translational Sciences (NCATS), 2012).
In all, about 340,000 compounds went through this assay and about 12,000 (3.5%) were called active. The shares of active, inactive and inconclusive entries below differ from those in the screen. The call rests on the fitted dose curve; in most records, active means well fitted inhibition curve with a large enough effect; inconclusive means small, poorly fitted or top-dose-only effect, or another doubt; inactive means no such curve, though single readings can be large or run the other way. Potencies of inconclusive entries are left out as doubtful fits.

assay: qHTS Assay for Inhibitors of Hepatitis C Virus (HCV); conditions: Huh7.5.1 HCVcc-Cre (HCVcc is cell-culture hepatitis C virus) infection, luciferase reporter, 44 h; series mostly up to 41.8 µM
Method in brief: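 Reporter virus HCVcc-Cre (~0.5 moi) infects cells exposed to compound; seeding density 1,000 cells/well with 4 h settling beforehand. Luminescence, 15 sec read, taken 44 h post-infection following a 15 min RT substrate incubation.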
Potency means the concentration at half of the fitted maximal effect; tags describe the fitted curve by direction and shape.

Row | Structure (SMILES) | Potency
1 | Cc1cccc(Cc2nnc(CCC(=O)NCc3cn4ccccc4n3)o2)c1 | inactive
2 | CC(NC(=O)c1cn(C)c2ccc(S(=O)(=O)N3CCCC3)cc2c1=O)c1ccccc1 (stereo unspecified) | inactive
3 | COc1cc(OC)cc(C(=O)Nc2ccc3c(c2)n(C)c(=O)n3C)c1 | inconclusive [inhibitor, partial curve]
4 | O=C(Nc1ccc2c(c1)OCO2)c1cn(Cc2ccc(F)cc2)nn1 | inactive
5 | COc1ccc(-c2cc(C)no2)cc1S(=O)(=O)NCCc1ccco1 | inactive
6 | Cc1cc(Nc2c(C)cccc2C)n2nc(C)nc2n1 | inactive
7 | COc1ccc(OC)c(C2=Nn3c(nnc3C3CCCCC3)SC2)c1 | active: 15.8 µM
8 | COc1ccc(/C(N)=N/OC(=O)c2cc(-c3ccccc3)nc3ccccc23)cc1 | inactive
9 | CCOc1cc2[nH]c(=S)n(Cc3ccc(C(=O)NCC(OC)OC)cc3)c(=O)c2cc1OCC | inactive
10 | Cc1ccc(NC(=O)c2ncn(CC(=O)N[C@H](CO)Cc3c[nH]c4ccccc34)n2)cc1C | inconclusive [inhibitor, single point]
11 | O=C(NCc1cccc(Cl)c1)c1ccc2c(c1)OCO2 | inconclusive [inhibitor, partial curve]
12 | OCCSc1ncnc2c1oc1ccccc12 | inconclusive [inhibitor, single point]
13 | CC(C)(C)c1cc(-c2ccco2)c(C#N)c(SCC#N)n1 | inconclusive [inhibitor, full curve]
14 | Cc1ccc(S(=O)(=O)N2CCCCC2)cc1NC(=O)COc1ccccc1F | inconclusive [inhibitor, single point]
15 | Cc1ccc(Nc2nc(Nc3ccc(C)cc3)nc(SC3=NCCS3)n2)cc1 | inconclusive [inhibitor, single point]
16 | OCCCNc1ncnc2sc(-c3ccccc3)cc12 | inconclusive [inhibitor, single point]
17 | COc1cc2nc(CSc3nc(-c4ccc(F)cc4)cs3)[nH]c(=O)c2cc1OC | inconclusive [inhibitor, full curve, poor fit]
18 | CCC(C)C1Nc2ccc(C(=O)NCCc3ccc(OC)c(OC)c3)cc2NC1=O (stereo unspecified) | inconclusive [inhibitor, full curve]
19 | CCCCOc1cccc(C(=O)NNC(=S)NC2CCCCC2)c1 | inconclusive [inhibitor, single point]
20 | O=C(NCCCc1ccccn1)C1CCC(=O)N(Cc2cccc(F)c2)C1 (stereo unspecified) | inactive
21 | Cc1cc(C(=O)COc2ccc3ccc(=O)oc3c2)c(C)n1C | inactive
